In PubChem BioAssay AID488969 (Vanderbilt High Throughput Screening Facility, 2010):
Over roughly 110,000 compounds, “z-score” has its median near -0.1; the highest 2% begin near 2. This is one part of the list. Calls of active or inactive are those of the source.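 Rule for the calls: active = z-score in the third read window above 3 or below -3; inactive = the rest.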

Target: Metabotropic glutamate receptor 8 (Rattus norvegicus) (UniProt P70579)
Experiment: mGluR8 Gi/Go-coupled signaling modulation – cell-based, rat, thallium flux, HTS, primary screen (AID 488969)
Conditions: HEK293 rat mGluR8, GIRK (G protein-gated inwardly rectifying potassium channel) thallium flux, FluoZin2; at 10 µM; stronger effect = higher value; submaximal glutamate (EC20) added with thallium

UniProt P70579, sequence (P70579 whole entry, looked up): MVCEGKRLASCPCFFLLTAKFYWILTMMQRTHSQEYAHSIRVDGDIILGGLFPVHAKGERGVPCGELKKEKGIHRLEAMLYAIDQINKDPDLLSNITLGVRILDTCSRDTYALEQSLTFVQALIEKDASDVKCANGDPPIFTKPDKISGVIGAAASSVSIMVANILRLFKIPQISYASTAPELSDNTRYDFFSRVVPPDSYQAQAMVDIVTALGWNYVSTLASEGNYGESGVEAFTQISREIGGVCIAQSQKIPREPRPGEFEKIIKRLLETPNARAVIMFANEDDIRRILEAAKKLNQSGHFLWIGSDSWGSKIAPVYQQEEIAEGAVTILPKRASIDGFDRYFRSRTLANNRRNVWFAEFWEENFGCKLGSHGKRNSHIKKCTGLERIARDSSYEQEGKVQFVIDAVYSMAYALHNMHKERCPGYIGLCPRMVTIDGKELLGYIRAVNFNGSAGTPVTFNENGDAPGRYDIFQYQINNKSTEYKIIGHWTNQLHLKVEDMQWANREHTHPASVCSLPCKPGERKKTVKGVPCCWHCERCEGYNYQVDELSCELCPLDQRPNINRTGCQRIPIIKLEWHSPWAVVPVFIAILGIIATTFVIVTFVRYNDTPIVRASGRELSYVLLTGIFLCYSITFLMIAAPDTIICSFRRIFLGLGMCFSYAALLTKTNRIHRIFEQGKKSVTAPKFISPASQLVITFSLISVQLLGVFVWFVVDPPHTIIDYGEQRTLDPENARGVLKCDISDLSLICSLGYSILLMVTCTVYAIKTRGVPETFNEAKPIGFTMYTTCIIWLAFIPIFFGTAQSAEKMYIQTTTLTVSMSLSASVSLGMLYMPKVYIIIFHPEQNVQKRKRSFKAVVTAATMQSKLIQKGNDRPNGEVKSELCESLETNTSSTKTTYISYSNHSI

Going from COc1ccc(C)cc1C(=O)CCC(=O)Nc1ccccc1N1CCOCC1 to O=C(Nc1cnc2ccccc2c1)N1CCOCC1, the z-score rises from -0.0933 to 0.247.

First: CC(=O)Nc1cc2nn(-c3ccccc3)nc2cc1Cl
Second: CN1C(=S)N(c2ccccc2)C(=O)/C1=C/c1ccco1
The z-score of the first is lower: -0.508 for the first, -0.162 for the second.

Compared with CC(C)CN(C(=O)COC(=O)Cc1n[nH]c(=O)c2ccccc12)C1CCS(=O)(=O)C1 (configuration not stated), CN(C)c1ccc(CN(C(=O)COc2ccc(Br)cc2)C2CCS(=O)(=O)C2)cc1 (configuration not stated) is lower in z-score: 1.83 for the first, 0.0654 for the second.

First: CCC(Sc1nc(C)cc(=O)[nH]1)C(=O)Nc1nc(-c2ccccc2)cs1 (configuration not stated)
Second: Cc1cc(OCc2nn[nH]n2)c2c(-c3ccccc3)cc(=O)oc2c1
The z-score of the first is lower: -1.23 for the first, 0.399 for the second.

Going from O=C1Nc2ccccc2N(O)N1c1ccc(S(=O)(=O)N2CCCCCC2)cc1 to O=C(O)c1cc(S(=O)(=O)N2CCCCCC2)c(Cl)cc1Cl, the z-score rises from -0.245 to -0.0409.

Going from CCOC(=O)C1CCCN(Cc2cccs2)C1 (configuration not stated) to Cc1sc2nc(CSc3nnc(Cc4cccs4)n3C3CCCCC3)[nH]c(=O)c2c1C, the z-score falls from -0.137 to -0.363.

Going from COc1ccc(C2(C(=O)NCCCN(C)C)CCOCC2)cc1 to COc1ccc(C(=O)NCC(C)C)c(OC)c1, the z-score falls from 0.344 to 0.305.

Going from CNc1ncc(C(=O)c2ccc(Cl)cc2)s1 to O=C(Nc1nnc(COc2ccc(Cl)cc2)s1)c1ccc([N+](=O)[O-])cc1, the z-score rises from -0.11 to 0.0224.

First: Cc1cc(O)c(C(C)C)cc1NS(=O)(=O)c1ccccc1
Second: COc1ccc(S(=O)(=O)NCCc2ccccc2)cc1
The z-score of the first is lower: -0.88 for the first, 0.0311 for the second.

First: COc1ccccc1C1C(C(N)=O)=C(C)Nc2nc(-c3ccc(Cl)cc3)nn21 (configuration not stated)
Second: COc1ccc(F)cc1S(=O)(=O)n1cc(C)nc1-c1ccccc1
The z-score of the first is higher: -0.394 for the first, -0.886 for the second.

First: Cn1c(C(=O)NCCN2CCCCCC2)cc2c(=O)n(C)c3ccccc3c21
Second: Cc1ccnc(SCCn2c(N3CCCCC3)nc3c2c(=O)n(C)c(=O)n3C)n1
The z-score of the first is higher: 1.86 for the first, -0.159 for the second.

First: CCOc1ccc(/C=N/NC(=O)c2c(C)n(C)c3ccc(OC)cc23)cc1
Second: COc1ccc(/C=N/n2cc(-c3ccc(OC)cc3)nc2N)cc1
The z-score of the first is lower: -0.363 for the first, 0.174 for the second.

Compared with CCc1nnc(NC(=O)C2CCN(c3nc(C)cc(C)n3)CC2)s1, Cc1cc2nc(SCC(=O)N(C)C)c3c(c2cc1C)CCCC3 is lower in z-score: 1.57 for the first, -0.519 for the second.

First: CC1(C)Cc2ccccc2C(NNC(=O)c2cccnc2)=N1
Second: CS(=O)(=O)N(CCc1ccccc1)CC(=O)NCc1cccnc1
The z-score of the first is higher: 1.43 for the first, 0.68 for the second.

First: O=C(CSc1ccc(-c2ccco2)nn1)NCc1ccccc1
Second: O=C(CN1C(=O)/C(=C\c2ccc(F)cc2)Oc2ccccc21)NCc1ccco1
The z-score of the first is higher: 0.939 for the first, 0.138 for the second.

Going from CCOC(=O)C(=CNCC(=O)O)C(=O)OCC to CCN(CC)C(=O)COC(=O)c1ccc(O)cc1, the z-score falls from -0.23 to -0.62.

Going from Cc1nc2ccc(NC(=O)c3ccc(Cl)c([N+](=O)[O-])c3)cc2s1 to COc1ccc(COc2ccsc2C(=O)Nc2ccc(Cl)c(Cl)c2)cc1, the z-score falls from -0.169 to -0.187.

Compared with COC(=O)c1ccc(NC(=O)CN2CCN(S(=O)(=O)c3cc(Cl)ccc3OC)CC2)cc1, Cn1c(CNC(=O)c2cccs2)nnc1SCC(=O)Nc1ccc(Cl)cc1 is higher in z-score: -0.489 for the first, -0.205 for the second.

Going from COc1cc(OC)c(OC)cc1/C=N/n1c(C)nnc1C to COc1ccc(C(=O)n2nc(C)cc2C)cc1OC, the z-score falls from 1.66 to -0.221.

Going from Cc1ccccc1C(=O)NNC(=O)C(C)N1C(=O)c2ccccc2C1=O (configuration not stated) to Cc1ccc(C(=O)NNC(=O)CSc2nnc(-c3ccncc3)n2C)cc1, the z-score rises from -0.215 to -0.121.

Going from COc1ccc(NC(=O)CN2C(=O)C(C)SC(C)C2=O)cc1 (configuration not stated) to Cc1ccc(C2(C)NC(=O)N(CC(=O)Nc3cc(C)on3)C2=O)cc1 (configuration not stated), the z-score falls from -0.0615 to -0.0921.

Compared with O=C(CSc1ccccc1Cl)N1CCC(c2nc3ccccc3s2)CC1, COc1ccc(C(=O)Nn2c(SCC(=O)N3CCC(C)CC3)nc3ccccc3c2=O)cc1 is lower in z-score: -0.136 for the first, -0.163 for the second.

First: O=C(C#Cc1ccccc1)c1cccc([N+](=O)[O-])c1
Second: CC(C)(C(=O)c1ccccc1)/[N+]([O-])=C/c1ccc(F)cc1
The z-score of the first is lower: -0.189 for the first, -0.0905 for the second.

Going from Cc1ccc(CSc2nnc3nc(C)cc(C)n23)cc1 to CCn1c(COc2ccc3c(c2)OCO3)nnc1SCC(=O)c1ccc(Cl)cc1, the z-score falls from 0.0482 to -0.433.

Compared with CCOC(=O)c1c(NC(=O)c2ccc(C)cc2)sc2c1CC(C)(C)OC2, CC1(C)CC(=O)CC(=Nc2ccc(C(=O)O)cc2)C1 is higher in z-score: -0.222 for the first, 2.15 for the second.

Going from COC(=O)C1=C(C)N(C)C(=O)/C1=C\c1cccs1 to COC(=O)C1=C(C)N=C2SC(C)C(=O)N2C1c1cccs1 (configuration not stated), the z-score falls from 0.0366 to -0.173.

Compared with Cc1ccc(Oc2nnc(-c3cccs3)c3ccccc23)cc1C, COc1cccc(-c2nc3ccccc3s2)c1 is lower in z-score: -0.107 for the first, -0.116 for the second.

Going from CCn1ncc(Br)c1C(=O)Nc1ccn(C23CC4CC(CC(C4)C2)C3)n1 to O=C(N1CCN(c2ccccc2F)CC1)C12CC3CC(CC(C3)C1)C2, the z-score falls from -0.117 to -0.199.

Compared with O=C(c1cc2c(cc1Br)OCCCO2)N1CCCCC1, CC1(C)Cc2nc(N3CCOCC3)c(C#N)cc2CO1 is lower in z-score: 0.00904 for the first, -0.0959 for the second.

Going from O=C(NCc1ccccn1)c1ccc(Br)s1 to Cc1nnc(SCC(=O)n2c3c(c4ccccc42)CCCC3)s1, the z-score rises from -0.124 to -0.0805.

Compared with COCCn1c(N)c(C#N)c2nc3ccccc3nc21, COc1cccc(Nc2nc3ccccc3n3nnnc23)c1 is higher in z-score: -0.354 for the first, 0.931 for the second.

Compared with O=C(CSc1nnc(-c2cccc(S(=O)(=O)N3CCOCC3)c2)n1C1CCCCCC1)NCc1ccccc1, Cc1cc(NC(=O)CCC(=O)N(Cc2cccs2)C(C(=O)NC2CCCC2)c2ccccc2)no1 (configuration not stated) is lower in z-score: -0.107 for the first, -0.18 for the second.

First: O=C(CN1CCOCCOCCOCC1)Nc1ccccc1
Second: CN1CCN(C(=O)CN(CCc2ccccc2)S(C)(=O)=O)CC1
The z-score of the first is higher: 0.274 for the first, 0.0439 for the second.

Compared with O=C(NC(Cc1c[nH]c2ccccc12)C(=O)NCc1ccc(F)cc1)OCc1ccccc1 (configuration not stated), CC(/C=C/c1ccccc1)=N/NC(=O)CNC(=O)c1ccc2c(c1)OCO2 is higher in z-score: -0.155 for the first, -0.0611 for the second.

Going from CC1CN(S(=O)(=O)c2ccccc2)C(C)CN1S(=O)(=O)c1ccccc1 (configuration not stated) to COc1ccc(-c2cc(=O)oc3cc(OC(=O)C4CCCCC4)ccc23)cc1, the z-score falls from 0.115 to -0.232.

In the case of O=C(CN1CCN(Cc2ccccc2)CC1)Nc1cccc(C(F)(F)F)c1, the z-score is reported as active: 7.94.
For CCCCc1cc(=O)oc2cc(C)cc(O)c12, the z-score was active: -3.56.
